From ChEMBL document CHEMBL4888484, “Replenishing the malaria drug discovery pipeline: Screening and hit evaluation of the MMV Hit Generation Library 1 (HGL1) against asexual blood stage Plasmodium falciparum ,using a nano luciferase reporter read-out” (2022)
In all, about 150,000 compounds went through this assay and about 540 (0.36%) showed an effect of 50% or more. This is one part of the list.

The compounds below were run on Plasmodium falciparum (assay: Primary screen in NF54 nanoGlo assay, in single point, at 2uM, 72h; a lower Z score goes with more inhibition). Conditions: timepoint 72 hour.
Type: functional, Erythrocyte

SMILES	% Inhibition [%]	Z score
CC(C)(C#N)C(=O)Nc1ccc(-c2nc3ccccc3s2)cn1	-23	2.11
CC(C)N1C2CCC1CN(CC(=O)NC(C)(C#N)C(C)C)CC2 (stereo not given)	-1	0.11
Cc1nnc(CC(=O)N2CCCc3c(C)c(F)cc(Cl)c32)o1	-15	1.92
Cc1cc(C(=O)NCc2cccnc2-n2ccnc2)cc2sc(N)nc12	-9	1.07
CCOC(=O)c1cc2n(n1)C[C@@](C)(C(=O)NC1CCCCCC1)N(c1ccc(NC(C)=O)cc1)C2=O	0	0.09
CN(CCc1ccccn1)c1ncccc1CNc1ncccc1C(F)(F)F	-3	0.27
O=S(=O)(CC1CCCCC1)NCc1noc(-c2ccccc2)n1	-7	1.27
Cc1ccc2c(c1)C(C)(C)C(=O)N2CC(=O)N1CCN(c2ccc(Cl)cc2)CC1	-14	2.32
CC(C)Oc1ccc(CN2C[C@H]3CC[C@H]2C3)cc1CO	6	-1.25
CC(C)(C)c1ccn(C2(C(=O)O)CCN(C/C=C/c3ccco3)CC2)n1	-7	0.84
CC(C)(C)OC(=O)N1C[C@H](O)C[C@H]1c1n[nH]c(-c2ccccc2)n1	-6	0.62
CC1CCC(O)(CN2CCCN(CC3(O)CCC(C)CC3)CC2)CC1 (stereo not given)	-1	0.09
CN(Cc1ccc(N2CCOCC2)cc1)c1nccc2ccc(F)cc12	5	-0.59
CC(C)(CCNC(=O)OC(C)(C)C)NC(=O)C1=C[S@+]([O-])CCC1	-3	0.45
COCC(=O)N1CCN(S(=O)(=O)c2cccc3nonc23)CC1	0	0.06
COC(=O)CN1CCc2onc(-c3cccc4ccccc34)c2C1	-1	0.16
NC(=O)N[C@@H]1C[C@H]1c1c(F)cccc1Cl	2	-0.29
CCc1nc2cc(-c3noc(Cc4ccc(C)cc4)n3)ccc2o1	-15	1.5
C[C@H](O)CN1CCn2c(cnc2C(F)(F)F)C1	-6	0.61
CCOC1(C)CCN(Cc2cnn(C)c2C(F)(F)F)CC1	3	-0.38
COCCn1nc(C)c(NCc2cc(C)oc2C)c1C	-5	0.77
COC(=O)[C@H](Nc1cnn(C(C)(C)C)c1)c1cccnc1	-10	1.48

SMILES	% Inhibition [%]	Z score
CCN1C(=O)C[C@H](C(=O)Nc2ccc(-n3cncn3)nc2)[C@H]1c1nccn1CC	-7	1.13
COCCn1nc(C)c(CNC(=O)N2CCC(C(C)C)CC2)c1C	-5	0.67
O=c1[nH]ccn1CCN(CCO)C1CCCCC1	11	-1.37
O=C(O)c1ccc(C(=O)N(Cc2ccccc2F)C2CCC2)nc1	1	-0.14
CN(CCN1CC(c2ccccc2)(c2ccccc2)CCC1=O)S(C)(=O)=O	-6	0.72
CCn1ccnc1[C@H]1OCCC[C@@H]1NS(=O)(=O)N1CCCC1	20	-2.56
C[C@@H]1CC[C@H](CO)N1C(=O)C1CCc2cncn2C1 (stereo not given in full)	-11	1.42
O=C(CC(c1ccccc1)c1ccccc1)N1CC(n2ccnn2)C1	-13	1.52
COC[C@@H]1CN(S(=O)(=O)c2ccccc2)C[C@H]1c1nc(C)no1	-16	2.76
CCc1ncc2c(n1)CN(C(=O)c1cc(C)c(-c3ccccc3)s1)C2	-5	0.84
CCS(=O)(=O)CCN(C)C(=O)Nc1c(C)cc(Cl)cc1C	6	-0.93
Cc1c(CNCc2cn(C(C)(C)C)nn2)cnn1C	-9	1.24
Cc1nc(CC(=O)Nc2cn(C)nc2-c2ccco2)c(C)s1	-12	1.48
Cc1ccc2c(NC(=O)NC3CCN(c4cnccn4)CC3)cccc2n1	-5	0.75
CN(C)C(=O)O[C@H]1CCN(C(=O)c2sncc2Br)C1	0	-0.04
CC(C)(C)OC(=O)N1CCC[C@@]2(CCN2C(=O)c2ncccc2O)C1	-9	1.24
c1ccc(-c2n[nH]c(C3CCN(c4nccn5nnnc45)CC3)n2)cc1	-8	1.25
CNC(=O)c1nnsc1N1CC(C)OC(C)C1 (stereo not given)	-6	0.84
CC(C)(C)c1ncc(CNc2ccc(F)c(F)c2)cn1	-4	0.34
CC[C@H]1CN(C(=O)c2cccc(-c3nccc(OC)n3)c2)CCN1C(C)C	-9	1.12
Cc1c(CC(=O)N[C@H]2CC[C@H](O)CC2)c2c(n1Cc1ccccc1)CCCC2=O	2	-0.4
COCc1cc(=O)[nH]c2cc(NC(=O)Cc3c(C)noc3C)ccc12	-16	2.28

SMILES	% Inhibition [%]	Z score
O=C([C@@H]1COc2ccccc2C1)N1CCCN(CC(F)F)CC1	-3	0.39
CCOc1ccc(C2c3[nH]c4ccccc4c3C[C@H]3C(=O)N(C4CCN(Cc5ccccc5)CC4)CC(=O)N23)cc1OC (stereo not given in full)	79	-7.03
CNc1ccc(C)cc1CNc1cccc([C@@H]2CCC(=O)N2)c1	-11	2.04
COC(=O)c1cc(-c2ccc(Cl)cc2)nc2c1c(C1CC1)nn2C	-11	1.26
Cc1cccc(OC[C@]2(CNCc3cccnc3)C[C@@H](O)[C@@H](O)C2)n1	-3	0.49
CCN1CCN(Cc2cccc(F)c2C(F)(F)F)C(=O)C1=O	0	0.06
C[C@](N)(CCc1ccc(O)cc1)C(=O)O	-2	0.39
O=C(NCC1(c2cccs2)CCCCC1)c1ccc2c(c1)OCO2	-13	2.39
Cc1cc(=O)c(C(=O)Nc2ccnc(NC(=O)OC(C)(C)C)c2)c[nH]1	-2	0.38
CNC(=O)c1cc(Oc2ccccc2NC(=O)[C@H]2CC2(C)C)ccn1	11	-1.55
CC(=O)N[C@H](c1nc(-c2cc(N3CCN(C)CC3)ccn2)no1)C1CCCC1	-24	2.85
CC(C)Oc1cc(N(C)Cc2ncc[nH]2)nc(N)n1	-11	1.5
Cc1cnn(C[C@H](C)NCC(=O)NCc2ccccn2)c1	4	-0.77
O=S(=O)(c1cccnc1)N1CC[C@H](Oc2ccncc2Cl)C1	-6	1.14
CC(C)(C)OC1CC(NCC(=O)NCC2CC2)C1(C)C (stereo not given)	-5	0.8
Cc1sc2ncnc(Oc3cccc4ccccc34)c2c1C	-7	1.23
Nc1ncccc1CN1CCC[C@H](C(=O)Cc2ccccc2)C1	-11	1.93
Cc1nnc(CN(C)C(=O)CO[C@H](c2ccccc2)C(F)(F)F)o1	-9	1.32
Cc1cc(=O)cc(O)n1CCc1noc(Cn2ccccc2=O)n1	-2	0.42
O=C(NCCN1CCOCC1)C1CCN(Cc2cccnc2)CC1	3	-0.48
CCOCCCNC(=NCCOC)NCc1cccc(OC)c1	3	-0.5
COc1cccc(Cn2c(=O)c3sccc3n(CC(=O)Nc3ccc4c(c3)OCO4)c2=O)c1	39	-1.43

SMILES	% Inhibition [%]	Z score
CCNS(=O)(=O)C1CCN(C(C)C(=O)N2CCc3ccccc3C2)C1 (stereo not given)	-4	0.59
Cc1ccc(C)c(OCCN(C)Cc2ncccc2C(=O)O)c1	-10	2.01
Cc1c[nH]c(CNC(=O)N(Cc2ccc(F)cc2)C2CCCCC2)n1	-10	0.97
COc1cc([C@@H]2C=C(c3ccc(Cl)cc3)Nc3ncnn32)ccc1OCc1ccc(Cl)cc1	44	-5.72
COc1cccc(CNCc2cc3ccccc3nc2N2CCCCC2)c1	-9	1.68
CC(C)Cc1nc(CN2C[C@@H]3C[C@H]2C(=O)N3c2cccc(Cl)c2)no1	-5	0.69
C=CCN(C)c1nc(COCC)nc2c1CCN(Cc1ccoc1)CC2	-1	0.23
CC1CC(NCc2ccnc(N(C)C)n2)CN(C(=O)OC(C)(C)C)C1 (stereo not given)	-2	0.48
CC(C)n1cnnc1-c1nn(C)c2c1CN(C(=O)c1ccco1)CC2	-22	3.2
Cc1noc(C)c1[C@H]1CC(=O)Nc2c1cnn2C1CCCC1	19	-2.31
Cc1nn(C)c(C)c1CCCNC(=O)N1CCC(c2ccccc2)C1C (stereo not given)	-3	0.42
COCCCNC(=O)Nc1ccn(C2CCCCC2)n1	-4	0.37
Cc1ccc(-c2csc(NC(=O)c3ccsc3)n2)c(C)c1	0	0.07
COCc1cc(C(=O)NS(=O)(=O)c2cccnc2)c(C)o1	-16	1.32
CCN1Cc2nc(OC)c(CNC(=O)N3CCCCCCC3)cc2C1=O	0	-0.06
COc1cccn2ncc(C(=O)N(C[C@H]3CCC(=O)N3)C(C)C)c12	13	-2.41
O=C(c1nc(-c2cccc(C(F)(F)F)c2)cs1)N1CC(F)C1	-11	1.48
CC(C)[C@H](Cn1nccn1)NC(=O)c1ccc(C(C)(C)C)cc1	-6	0.99
COc1ccc(-c2nc(NCCN3CCOCC3)nc3nn(-c4ccc(F)cc4)c(N)c23)cc1OC	-6	0.56
